Structures are written as SMILES. Screen size: about 310,000 compounds; about 2,200 (0.71%) showed an effect of 50% or more. The effect is printed as a negative number. The list shows a part of the results.

Chain of human ether-à-go-go-related gene (hERG) potassium channel (Q12809 whole entry, looked up): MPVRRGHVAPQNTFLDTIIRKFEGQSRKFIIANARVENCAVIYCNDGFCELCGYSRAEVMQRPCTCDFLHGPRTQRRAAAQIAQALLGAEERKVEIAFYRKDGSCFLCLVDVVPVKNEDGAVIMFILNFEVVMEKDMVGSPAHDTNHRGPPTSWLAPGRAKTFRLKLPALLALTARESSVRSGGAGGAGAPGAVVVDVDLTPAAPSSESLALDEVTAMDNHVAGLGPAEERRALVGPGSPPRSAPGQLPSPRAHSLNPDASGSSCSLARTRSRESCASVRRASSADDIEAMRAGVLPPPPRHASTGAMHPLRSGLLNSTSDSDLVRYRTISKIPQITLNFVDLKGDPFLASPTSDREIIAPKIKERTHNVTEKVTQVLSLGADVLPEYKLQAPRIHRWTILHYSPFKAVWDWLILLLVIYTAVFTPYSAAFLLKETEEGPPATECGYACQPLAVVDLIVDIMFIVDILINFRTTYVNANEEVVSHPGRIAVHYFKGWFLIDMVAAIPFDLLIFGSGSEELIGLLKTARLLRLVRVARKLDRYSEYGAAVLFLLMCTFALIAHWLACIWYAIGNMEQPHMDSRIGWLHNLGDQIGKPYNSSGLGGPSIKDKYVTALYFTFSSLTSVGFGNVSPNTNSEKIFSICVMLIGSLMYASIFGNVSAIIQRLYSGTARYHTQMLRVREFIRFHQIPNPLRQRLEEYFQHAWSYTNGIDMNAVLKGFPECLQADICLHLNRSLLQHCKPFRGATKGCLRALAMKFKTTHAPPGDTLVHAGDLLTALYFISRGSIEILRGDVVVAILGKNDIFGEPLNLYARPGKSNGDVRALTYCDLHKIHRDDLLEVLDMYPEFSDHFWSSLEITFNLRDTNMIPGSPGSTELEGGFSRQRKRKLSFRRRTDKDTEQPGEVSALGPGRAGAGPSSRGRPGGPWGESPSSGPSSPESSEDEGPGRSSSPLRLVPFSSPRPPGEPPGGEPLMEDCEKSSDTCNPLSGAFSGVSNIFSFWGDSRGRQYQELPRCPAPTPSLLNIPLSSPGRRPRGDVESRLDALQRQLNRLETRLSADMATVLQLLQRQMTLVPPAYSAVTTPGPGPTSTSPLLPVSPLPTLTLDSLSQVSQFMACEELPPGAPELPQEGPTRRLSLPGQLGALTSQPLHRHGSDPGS

This assay addresses human ether-à-go-go-related gene (hERG) potassium channel (human, UniProt Q12809). Put plainly: primary screen, population patch clamp on CHO cells stably expressing hERG.
In the case of `CC1(C)CC2CC(C)(CN2C(=O)COC(=O)c2cccc(O)c2)C1` (stereo not drawn), the “hERG current change (%, negative = inhibition) at 1uM” value is listed as 9.01%.

In the case of `Cn1c(C(=O)N2CCN(c3ncccn3)CC2)cc2c(=O)n(C)c3ccccc3c21`, the “hERG current change (%, negative = inhibition) at 1uM” value is 5.3%. As for `CC(C)(C)c1ccc(C(=O)NCCC(=O)N2CCC3(CC2)NCCc2[nH]cnc23)cc1`, the figure is 18.3%; as for `Cn1c(CNC(=O)CCNC(=O)c2cccc(Br)c2)cc(=O)n(C)c1=O`, 9.17%.

As to `COc1ccc(NC2=C(c3ccc(OC)cc3)C(=O)c3ccccc32)cc1`, the “hERG current change (%, negative = inhibition) at 1uM” value is on record as -0.121%. As for `COc1ccccc1NC(=S)Nc1ccc2cn[nH]c2c1`, the figure is 3.6%. With `Nc1ccn(CC(=O)NCc2ccccn2)c(=O)n1`, the “hERG current change (%, negative = inhibition) at 1uM” value was 3.14%.

On to `O=C(CCC(=O)N(CC(=O)NC1CCCC1)C1CCCCC1)Nc1ccccn1`, for which the “hERG current change (%, negative = inhibition) at 1uM” value is recorded as 4.9%. In the case of `O=C1NC(=O)N(Cc2ccccc2)C(=O)/C1=C\c1ccco1`, the “hERG current change (%, negative = inhibition) at 1uM” value is on record as -5.3%. Turning to `CCN(CC(=O)N1CCCC1)S(=O)(=O)c1ccccc1`, the “hERG current change (%, negative = inhibition) at 1uM” value is listed as 16.4%. For `Clc1ccc(CNCCc2ccc3c(c2)OCO3)cc1.O=C(O)C(=O)O`, the “hERG current change (%, negative = inhibition) at 1uM” value is reported as -16.4%. As for `CCOc1ccc(CNC(=O)CCC(=O)n2ncc3ccc(Cl)cc32)cc1`, the figure is 2.78%; as for `CC(=O)c1cccc(NC(=O)Nc2ccccc2)c1`, 15.7%; as for `CCN1CCN(C(=O)c2ccc(Cl)c(S(=O)(=O)N3CCOCC3)c2)CC1`, 6.75%.

With `COC(=O)c1c(NC(=O)c2c(-c3ccccc3Cl)noc2C)sc2c1CCC2`, the “hERG current change (%, negative = inhibition) at 1uM” value worked out at 7.12%. As for `O=Cc1cc([N+](=O)[O-])ccc1N1CCOCC1`, the figure is 5.17%.

On to `Cc1ccc2cc(C#N)c(NCCNC(=S)NCCCN3CCOCC3)nc2c1`, for which the “hERG current change (%, negative = inhibition) at 1uM” value is on record as -5.49%. As for `CC(=O)CSc1cc(-c2ccccc2)nc2ncnn12`, the figure is 13.3%; as for `COc1cccc(N2CCN(S(=O)(=O)c3c(C)[nH]c(C)c3C(=O)N3CCCCC3)CC2)c1`, 15.2%; as for `CC(C)N(Cc1nccn1C)C(=O)c1cc(COc2cccc(C(F)(F)F)c2)on1`, -0.863%.

In the case of `Cc1ccc(CNC(=O)c2cc(S(=O)(=O)N3CCCC3)cn2C)cc1`, the “hERG current change (%, negative = inhibition) at 1uM” value is 11.4%. `Cc1ccccc1OCCC(=O)Nc1ccc(F)c(Cl)c1`: the “hERG current change (%, negative = inhibition) at 1uM” value is listed as 13.7%.

With `Cc1cc2nnc(SCC(=O)NCc3cccs3)n2c2ccccc12`, the “hERG current change (%, negative = inhibition) at 1uM” value is -2.94%. With `CC(C)(C)C(=O)Nc1sc(-c2ccccc2)cc1C(=O)O`, the “hERG current change (%, negative = inhibition) at 1uM” value is listed as 14.9%.

For the molecule `O=C(Nc1ccc(-c2nc3ccccc3o2)cc1)c1ccc(N2CCOCC2)c([N+](=O)[O-])c1`, the “hERG current change (%, negative = inhibition) at 1uM” value is given as -0.433%.

Consider `N/N=C/C(=N\Nc1ccc(Cl)cc1)C(=O)c1ccncc1`, for which the “hERG current change (%, negative = inhibition) at 1uM” value worked out at 9.72%. On to `COc1ccc(Cl)cc1NC(=S)NCc1ccc(S(N)(=O)=O)cc1`, for which the “hERG current change (%, negative = inhibition) at 1uM” value stood at 14.4%. As for `CCCCCCCNC(=O)C1(CC2CC(c3ccc(Cl)cc3)=NO2)CCNCC1` (stereo not drawn), the figure is -24.3%; as for `COc1ccc(C2=NN(C(C)=O)C(c3cccs3)C2)cc1OC` (stereo not drawn), 11.7%. Consider `O=C(NCc1ccc(Cl)cc1)c1ccc(S(=O)(=O)N2CCCCC2)cc1`, for which the “hERG current change (%, negative = inhibition) at 1uM” value turned out to be 15.4%. As for `CC(=O)OC1C2CCCC1C(N1CCCC1)CC2.Cl` (stereo not drawn), the figure is 0.62%; as for `CC(=O)Oc1ccc(C(=O)Nc2ccccc2C(=O)Nc2cccc(C(=O)O)c2)cc1`, 15%. As for `COc1ccc(C(=O)NC(NC(=O)c2ccc(OC)c(OC)c2)c2ccccc2F)cc1OC`, the figure is 5.21%; as for `COc1ccccc1CN(C)c1nnnn1-c1ccccc1`, 7.13%; as for `Cc1ccc(S(=O)(=O)NCC(c2ccc3c(c2)OCO3)N2CCOCC2)cc1` (stereo not drawn), 7.54%. On to `CCN(CC)c1ccc(NC(=O)c2cnn(CC)c2)cc1`, for which the “hERG current change (%, negative = inhibition) at 1uM” value is given as -1.75%. As for `O=C(CCC(=O)OCC(=O)c1ccc(C(F)(F)F)cc1)OCC(=O)c1ccc(C(F)(F)F)cc1`, the figure is 11.4%; as for `COc1ccccc1CNC(=O)CCCC(=O)n1ncc2cc(C)ccc21`, 7.25%; as for `CN(C)c1ccnc(Nc2ccc(O)cc2)c1C#N`, 16.3%. As for `CCc1ccc(CCC(=O)Nc2ccc(S(N)(=O)=O)cc2)o1`, the figure is 5.31%; as for `COc1cc(-c2nnc(SC/C=C/c3ccccc3)n2N)cc(OC)c1OC`, 16.5%; as for `O=C(Cc1ccccc1Cl)N1CCN(c2ncccn2)CC1`, 3.97%.

With `Cc1ccc(-n2nnnc2SCc2nnc(-c3ccccc3Br)o2)cc1`, the “hERG current change (%, negative = inhibition) at 1uM” value is given as 7.79%. As for `CC1(C)CSC(Nc2ccc(F)c(Cl)c2)=N1`, the figure is 1.51%; as for `COc1ccc(CN2CCNC(=O)C2CC(=O)NCCCC2CCCC2)c(F)c1` (stereo not drawn), 3.19%. As for `O/N=C1\CCC2CN(C3CCCCC3)CC2C1` (stereo not drawn), the figure is -4.87%.

Consider `O=Cc1cn(Cc2c(F)cccc2Cl)c2ccccc12`, for which the “hERG current change (%, negative = inhibition) at 1uM” value came out at 5.7%.

In the case of `CCN(C(=O)COC(=O)c1ccc(OCc2c(C)noc2C)cc1)c1ccccc1`, the “hERG current change (%, negative = inhibition) at 1uM” value is 12.1%. As for `N#CC1=C2SCN(Cc3ccco3)CN2C(=O)CC1c1ccccc1F` (stereo not drawn), the figure is -0.638%.

On to `Cn1c(SCCOc2ccc(F)cc2)nnc1-c1ccncc1`, for which the “hERG current change (%, negative = inhibition) at 1uM” value is -8.63%. As for `O=C(CN(Cc1ccco1)C(=O)c1ccc([N+](=O)[O-])cc1)Nc1ccccc1C(F)(F)F`, the figure is -0.169%; as for `CC(=O)NC(c1ccco1)c1ccc2cccnc2c1O` (stereo not drawn), -3.48%. As for `c1ccc(-c2nnc(N3CCN(c4ccccn4)CC3)c3ccccc23)cc1`, the figure is -6.02%; as for `COc1ccccc1-c1nc2ccccc2nc1-c1ccccc1OC`, 11.8%; as for `Cc1cccc(N2CCN(C(=O)CSc3ccc4c(c3)OCCO4)CC2)c1C`, 3.25%. `CSC1=C(C#N)C(c2ccc(C)cc2)C2=C(CCCC2=O)N1` (stereo not drawn): the “hERG current change (%, negative = inhibition) at 1uM” value is listed as 8.17%. As for `CCCS(=O)(=O)N1CCN(c2ccccn2)CC1`, the figure is 10.2%; as for `N#Cc1cc2cc3c(cc2nc1SCC(=O)N1CCOCC1)OCCO3`, 9.02%.

With `CC1=C2C(=O)OC(c3ccoc3)C2(C)CCC1` (stereo not drawn), the “hERG current change (%, negative = inhibition) at 1uM” value amounted to 1.19%.

In the case of `N#CCc1ccc(OC(=O)Nc2ccccc2)cc1`, the “hERG current change (%, negative = inhibition) at 1uM” value is recorded as 0.885%. `COc1ccccc1/C=C/C(=O)Nc1cccc(S(=O)(=O)NC2=NCCCCC2)c1`: the “hERG current change (%, negative = inhibition) at 1uM” value worked out at 13.1%. As for `COc1cc2[nH]c(=S)n(CCN3CCOCC3)c(=O)c2cc1OC`, the figure is 6.18%; as for `O=C(Nc1cccc(-c2csc(Nc3cccc(C(F)(F)F)c3)n2)c1)c1cc([N+](=O)[O-])cc(C(F)(F)F)c1`, -1.44%; as for `CCc1ccc(C2CC(c3ccccc3)n3ncnc3N2)cc1` (stereo not drawn), -0.803%. As for `CCC1CCCCN1C(=S)Nc1cccc(S(=O)(=O)N(C)C)c1` (stereo not drawn), the figure is 6.94%. As for `O=C(N[C@@H](Cc1ccccc1)C(=O)CCl)OCc1ccccc1`, the figure is 16.3%. For `COc1ccc(OC)c(-c2cc(C(=O)N3CCOCC3)no2)c1`, the “hERG current change (%, negative = inhibition) at 1uM” value worked out at 10.6%.

In the case of `COc1ccc(NC(=O)COC(=O)c2ccc(NS(=O)(=O)/C=C/c3ccccc3)cc2)cc1`, the “hERG current change (%, negative = inhibition) at 1uM” value is 14.2%. As for `CCN(CCNS(=O)(=O)c1ccc2c(c1)oc(=O)n2C)c1ccccc1`, the figure is -0.968%; as for `Cc1nc2c(cnn2-c2ccccc2Cl)c(=O)n1-c1ccc(C(C)C)cc1`, 17.3%.

Take `CCOC(=O)c1c(NC(=O)CCC(=O)N(CC)CC)sc2c1CC(C)(C)OC2`: the “hERG current change (%, negative = inhibition) at 1uM” value is listed as 6.66%. As for `CC1CCCCC12NC(=O)N(CC(=O)NC(=O)Nc1ccc3c(c1)OCCO3)C2=O` (stereo not drawn), the figure is 8.38%; as for `Nc1nc(O)c(Sc2ccccc2[N+](=O)[O-])c(=O)[nH]1`, 14.8%; as for `Cc1ccc(C(=O)NCC(=O)N2CCCC(C(F)(F)F)C2)s1` (stereo not drawn), 8.18%.

For `CCOc1cc(/C=C2\CCn3c2nc2cc(Cl)ccc2c3=O)ccc1O`, the “hERG current change (%, negative = inhibition) at 1uM” value was determined as 17.6%. As for `O=C(CCCCn1c(=O)c2ccccc2n(CC(=O)Nc2ccccc2)c1=O)NCc1ccco1`, the figure is 14.7%. As for `C=CCN1c2ccccc2[C@]23C[C@@H](C(=O)OC)N(C(=O)c4cc(C)oc4C)C2=NC(C(=O)OC)=C(C(=O)OC)[C@H]13`, the figure is 3.9%; as for `Cc1ccc(C#N)c(SCC(=O)Nc2nccs2)n1`, 12.7%. As to `O=C(O)/C(CC(=O)c1ccc(Cl)cc1)=N/Nc1ccc([N+](=O)[O-])cc1[N+](=O)[O-]`, the “hERG current change (%, negative = inhibition) at 1uM” value is reported as 11.4%. Turning to `COc1cc(NC(=O)c2ccccc2[N+](=O)[O-])ccc1NC(=O)c1cc2ccccc2o1`, the “hERG current change (%, negative = inhibition) at 1uM” value was 13.2%. Regarding `COc1ccc(N(CC(=O)Nc2c(C)n(C)n(-c3ccccc3)c2=O)S(=O)(=O)c2ccc(F)cc2)cc1`, the “hERG current change (%, negative = inhibition) at 1uM” value amounted to 0.402%.

Turning to `Cc1cc(C)cc(OC(C)C(=O)NCCCn2ccnc2)c1` (stereo not drawn), the “hERG current change (%, negative = inhibition) at 1uM” value is 9.27%. As for `O=[N+]([O-])c1ccc(/C=N/NC(=S)Nc2ccccc2C(F)(F)F)o1`, the figure is -0.186%.

Take `COc1ccccc1N1CCN(C2CC(=O)N(c3ccc(F)cc3)C2=O)CC1` (stereo not drawn): the “hERG current change (%, negative = inhibition) at 1uM” value was determined as 11.3%. As for `COc1ccc(/C=N/N2C(C)CCCC2C)cc1OC` (stereo not drawn), the figure is 13.5%; as for `CCOC(=O)C1C(c2ccc([N+](=O)[O-])cc2)C2C(=O)NN=C2CC1(C)O` (stereo not drawn), 15%. As for `COC(=O)c1ccc(N2CCOCC2)c(F)c1`, the figure is 10%.

Source of the values: publication PMC4336329 (PLoS ONE, 2015).
